# Measured values as given in the supplement of paper PMC5655136.
# These are enrichments in a pooled selection; single values are uncertain.
# Tested on: NB7
# Assay: fold depletion of shRNA, plasmid library share / infected cells without Dox share (9 days) (ratio); higher = more depleted after infection (more toxic, leaky expression from a Tet-inducible vector; NB7 is a neuroblastoma line without caspase-8)
# Conditions: shRNA pool: CD95 ORF + CD95 3'UTR + Venus libraries
# 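Also: shRNA barcodes quantified by deep sequencing of PCR amplicons from cellular DNA, counts expressed as percent of each subpool, ratio averaged over two biological duplicates.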
row,Sequence,fold depletion of shRNA
1,AGGCCAACTTCAAGATCCGCC,1.17
2,ACTGTGACCCTTGCACCAAAT,2.94
3,TCATACCCCCAAGTTTCTAAG,1.98
4,AAGGGAAGGAGTACACAGACA,0.939
5,CCATTTTTCTTCCAAATGCAG,0.556
6,GCAGCTCGCCGACCACTACCA,0.18
7,GAAATAATATTTATATTTCTG,0.988
8,CCCCATCGGCGACGGCCCCGT,0.937
9,TACTATCCTACGTTTAAATAT,0.764
10,CAAACTTCATCAAGAGTAAAT,0.737
11,TACTACAGTTGAGACTCAGAA,1.01
12,TGTCCCATGTAAAACCTGCTA,2.9
13,ACCACCCTGGGCTACGGCCTG,1.62
14,CTCTATGAATCAATAGAAGAA,0.609
15,AAGATTCTCCTTACTACTATC,1.26
16,GCAGAGGATGAAAGATTAAGA,1.01
17,AAGATCATATTTATGTAAAGT,0.972
18,GCCCTTAGAAATTCTAGCCTG,0.565
19,ACTCAGAAAATTCAAACTTCA,1.08
20,TGAGGAAGACTGTTACTACAG,2.27
21,ATTCAGTTCTGAGTATATGCA,1.38
22,ATAGGTAAAAGTACGTAATTA,1.06
23,ACCCAAATAGGAGTGTATGCA,1.4
24,TTGACTATTATATATGTGTAT,0.787

row,Sequence,fold depletion of shRNA
1,AGCTACCAGTCCGCCCTGAGC,0.386
2,ACCGCCGCCGGGATCACTCTC,1.14
3,CACCCTGGGCTACGGCCTGCA,1.45
4,ACTAAGTCAAGTTAAAGGCTT,0.759
5,CCTCGTGACCACCCTGGGCTA,1.39
6,ATGACAATGTCCAAGACACAG,1.01
7,TCTAGTTGGGAAAACAAACTT,1.65
8,ATGTAGATTGTGTGATGAAGG,6.99
9,CGGCAACATCCTGGGGCACAA,0.824
10,GCCACAACATCGAGGACGGCG,0.709
11,TGGTTTTTTACTGGGTACATT,1.12
12,TCTCGGCATGGACGAGCTGTA,1.28
13,CAATGAAGCCAAAATAGATGA,0.859
14,GTGACTCAGAAAATTCAAACT,2.37
15,TCAAGATCCGCCACAACATCG,2.04
16,CGTGCAGCTCGCCGACCACTA,0.6
17,GGGCGAGGGCGATGCCACCTA,1.34
18,CTTTGCCTCTAAATTACCTCT,1
19,CATGGCTTAGAAGTGGAAATA,0.999
20,CCCTGGCCCACCCTCGTGACC,2.18
21,TTTTGCCTTGGTGCTCATCTT,4.8
22,GATTCTTATTTTTCCCCCACC,1.61
23,CCGAAGGCTACGTCCAGGAGC,1.4
24,ATTGGAATTGAGGAAGACTGT,1.34

row,Sequence,fold depletion of shRNA
1,ATCTTCTTCAAGGACGACGGC,1.53
2,AAACTTTGTTTATAACTCTGA,0.921
3,ATACCCCCAAGTTTCTAAGAT,1.54
4,ATTCTGCCTCCAAGGATGTTT,4.31
5,GACTGCACAGTCAATGGGGAT,3.82
6,CAAGAAGGGAAGGAGTACACA,0.955
7,CTAAGATTTAAGATTCTCCTT,0.688
8,AGCCAAAATAGATGAGATCAA,1.18
9,GGAAATATCACCAAAAAATAC,0.99
10,CTGGCCCACCCTCGTGACCAC,0.778
11,GAATACCAAGTGCAGATGTAA,1.22
12,GGCATCTGGACCCTCCTACCT,2.09
13,AGATTATGCTCTGGCATCTAA,2.69
14,CAGCGTGTCCGGCGAGGGCGA,0.328
15,TCCTGCTGGAGTTCGTGACCG,0.77
16,CCCAACGAGAAGCGCGATCAC,1.32
17,ATTCAGACTATCATCCTCAAG,1.22
18,GAAAGCACAGAAAGGAAAACC,1.61
19,TTCGTGACCGCCGCCGGGATC,1.47
20,AGCTGGAGTACAACTACAACA,2.47
21,CACCAAATGTGAACATGGAAT,1.02
22,TTTTTCTTCCAAATGCAGAAG,1.21
